Measured values from PubChem BioAssay AID686978 (National Center for Advancing Translational Sciences (NCATS), 2013).
Screen size: about 420,000 compounds; about 64,000 (15%) were called active. Inconclusive means that the source gave no clear call. Such entries were picked first, then a sample of the others. Calls follow the shape of the dose curve; as a rule, active = well fitted inhibition curve with a large enough effect; inconclusive = small, poorly fitted or top-dose-only effect; inactive = flat fitted curve, though single readings scatter. No potency is given beside an inconclusive call; the fits are too rough.

Assay: qHTS for Inhibitors of human tyrosyl-DNA phosphodiesterase 1 (TDP1): qHTS in cells in absence of CPT; also: nearly all actives have a fitted effect of over 55% in size
Conditions: DT40 Tdp1-/- hTDP1 cells, no CPT, ATP luminescence, 48 h; activity change, negative = growth inhibition: at 46.2 µM (top of the series) unless noted
How it was run: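 A cellular qHTS used chicken DT40 cells lacking endogenous Tdp1 but carrying stably transfected human TDP1. Compounds were applied without camptothecin, and cell growth kinetics were judged by ATP-dependent luminescence after ≥48 hr.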
% is scaled to controls: 0 for no effect and ±100 for the full control effect; potency is read from the fitted curve at half-maximal effect; tags tell the direction and shape of the fitted curve.

SMILES | Potency | activity change, negative = growth inhibition
CCN1C(=O)[C@H]2[C@@H](c3ccc(-c4ccc5c(c4)OCO5)c(OC)c3)N[C@@](Cc3ccccc3)(C(=O)OC)[C@H]2C1=O | inconclusive [inhibitor, partial curve, poor fit] | –
Cc1ccc(-c2nc(C3CCN(S(=O)(=O)c4ccc(C(C)(C)C)cc4)CC3)no2)cc1 | inconclusive [inhibitor, single point] | –
CCOc1ccccc1CN1CCN(Cc2cccc3nonc23)CC1CCO (stereo not given) | inconclusive [inhibitor, single point] | –
CCC(O)(c1ccc(OC)cc1)C(CN1CCOCC1)c1ccccc1 (stereo not given) | inconclusive [inhibitor, single point] | –
O=C1NC(=O)c2cc(Br)cc3cccc1c23 | – | inactive: -18.3%
Cc1ccc(C(=O)NC(=S)NNC(=O)CCN2CCOCC2)cc1 | inconclusive [inhibitor, single point] | –
COCCNC(=O)C1CC(c2cccc(F)c2)=NO1 (stereo not given) | – | inactive: -11.6%
CC1=C(C(=O)OC(C)C)C(c2cccc(F)c2)n2ncnc2N1 (stereo not given) | active: 16.4 µM | –
COc1ccccc1NC(=O)N1CCCC(c2nc3c(nnn3Cc3ccc(C)cc3)c(=O)[nH]2)C1 (stereo not given) | inconclusive [inhibitor, single point] | –
CC1CCCCC1NC(=O)NC(=O)COC(=O)c1nccnc1N (stereo not given) | – | inactive: -1.35%
Cc1ccc(C)c(CNS(=O)(=O)c2ccc3c(c2)C(C)(C)C(=O)N3C)c1 | inconclusive [inhibitor, partial curve] | –
CCOC(=O)c1c(NC(=O)/C=C/c2ccc(C)o2)sc(C)c1C | – | inactive: -21.9%
COc1ccc(NC(=O)Cn2cc(S(=O)(=O)N3CCC(C)CC3)c3ccccc3c2=O)cc1Cl | – | inactive: -9.1%
COc1ccc2c(c1)c1c(c(=O)n(-c3ccc(C)cc3)c(=O)n1CC(=O)c1ccc(Cl)cc1)n2C | inconclusive [inhibitor, full curve] | –
O=C(NC12CC3CC(CC(C3)C1)C2)c1cc(F)c(F)c(F)c1F | inconclusive [inhibitor, single point] | –
CC1CCN=C(N)S1 (stereo not given) | – | inactive: 16.3%
O=C(c1ccc(S(=O)(=O)N2CCOCC2)cc1)N(Cc1ccco1)Cc1cccs1 | inconclusive [inhibitor, single point] | –
CCOc1ccc(CCN2C(=O)C3C4C=CC(C4)C3C2=O)cc1OCC (stereo not given) | – | inactive: -14.6%
NNC(=O)c1cccc(Cn2cc(Br)c([N+](=O)[O-])n2)c1 | inconclusive [inhibitor, partial curve] | –
COC(=O)c1cc(C(=O)OC)cc(S(=O)(=O)Nc2ccc(Cl)c(N)c2)c1 | – | inactive: -4.81%
CCOC(=O)c1c(-c2ccccc2)c2cc(OC)ccc2n1CCCN(C)C | inconclusive [inhibitor, single point] | –
O=C1CN(C(=O)COC(=O)c2cccc(OCc3ccccc3)c2)c2ccccc2N1 | inconclusive [inhibitor, single point] | –
CSC1=NCCN1S(=O)(=O)c1ccccc1 | – | inactive: -25.8%
CCCCCc1c(-c2ccc(Br)cc2)ncn1CCc1ccccc1OC | active: 4.61 µM | –
COC1OC(c2ccccc2)=C(c2ccc(C(N)=O)cc2)c2ccc(F)cc21 (stereo not given) | – | inconclusive: -31% [inhibitor]

SMILES | Potency | activity change, negative = growth inhibition
CC(=O)Oc1ccc(C(=O)N2c3ccccc3NC(=O)C2C)cc1 (stereo not given) | – | inactive: 13.6%
CC(C)C[C@@H](CN1CCC[C@@H]1CN1C(=O)C(=O)NC[C@@H]1Cc1ccccc1)N1C[C@H](Cc2ccccc2)N(CC2CCCCCC2)C(=O)C1=O | inconclusive [inhibitor, single point] | –
Cc1ccc(C)c(N2CCN(C(=O)c3ccc(-c4nc(COc5ccccc5)c(C)o4)cc3)CC2)c1 | active: 14.6 µM | –
CCOc1ccc(N(CC(=O)NCCSc2ccccn2)S(=O)(=O)c2ccc(Cl)cc2)cc1 | inconclusive [inhibitor, single point] | –
CN(C)S(=O)(=O)c1ccc(N2CCOCC2)c(C(=O)NCc2ccc3c(c2)OCO3)c1 | inconclusive [inhibitor, single point] | –
CN(C)S(=O)(=O)c1ccc2c(c1)nc(CCC(=O)Nc1ccc(N3CCOCC3)cc1)n2C | – | inactive: -0.902%
C=CCN1C(=O)c2ccc(C(=O)NCCc3ccc(OC)c(OC)c3)cc2C1=O | – | inactive: -1.32%
CN(Cc1ccc(Cl)cc1)C(c1cc2ccccc2o1)c1nnnn1C(C)(C)C (stereo not given) | inconclusive [inhibitor, single point] | –
Cc1ccc2c(c1)cc1c(=O)n(CC(=O)N(C)c3ccccc3)nc(C)n12 | inconclusive [inhibitor, partial curve] | –
CC(C)(C)CN1C(N)=NC[C@H]1Cc1ccc(O)cc1 | inconclusive [inhibitor, partial curve] | –
COc1cc(C=O)c(Cl)cc1OCC(N)=O | – | inactive: 16.4%
CN(C)CCSc1nc(-c2ccccc2)nc2c1CCC2 | – | inactive: 1.67%
CN(C)c1ccc(C(=S)N2CCN(c3ccc([N+](=O)[O-])cc3)CC2)cc1 | active: 20.6 µM | –
Cc1c(C(=O)Nc2c(C)n(C)n(-c3ccccc3)c2=O)oc2ccc(Cl)cc12 | inconclusive [inhibitor, partial curve] | –
CCOC(=O)c1c(S(=O)(=O)N2CCCC(C(=O)NCc3ccc(F)cc3)C2)c(C)n(CC)c1C (stereo not given) | – | inactive: -20.8%
COc1ccc(CN(Cc2ccco2)C(=O)COc2ccc(Cl)cc2C)cc1 | active: 20.6 µM | –
CC(C)Sc1nnc2n(CCc3ccccc3)c(=O)c3c4c(sc3n12)COC(C)(C)C4 | active: 20.6 µM | –
CN(C)c1ccc(CN(CC2CCCO2)C(=O)c2cccs2)cc1 (stereo not given) | – | inactive: -22.5%
CCCCCn1c(=O)[nH]c2cc(C(=O)NCCCN3CCCCC3CC)ccc2c1=O (stereo not given) | inconclusive [inhibitor, single point] | –
CC(C)CC(=O)N1CCN(Cc2ccc3ccccc3c2)CC1 | inconclusive [inhibitor, single point] | –
Cc1ccc(-c2csc3ncnc(Oc4cccc5ccc(C)nc45)c23)cc1 | active: 20.6 µM | –
CN1CCN(S(=O)(=O)c2ccc(F)cc2)CC1 | – | inactive: -3.52%
CCn1c(CNC(=O)c2ccccc2Cl)cc2ccccc21 | – | inconclusive: -28.8% [inhibitor]
CSCCC(NS(=O)(=O)c1ccccc1)C(=O)OCc1cc(=O)oc2cc(O)ccc12 (stereo not given) | inconclusive [inhibitor, single point] | –
Cn1c(=O)[nH]c(=O)c2c1nc(NC1CCCCC1)n2Cc1ccccc1 | inconclusive [inhibitor, partial curve] | –

SMILES | Potency | activity change, negative = growth inhibition
CCNC(=O)C1(C)CCCN1Cc1ccccc1Cl (stereo not given) | inconclusive [inhibitor, single point] | –
CCOc1ccc(CN2CCNC(=O)C2CC(=O)NC2CCOCC2)cc1 (stereo not given) | – | inactive: 6.26%
Cc1ccc(NC(=O)CCC(=O)NNC(=O)c2ccccc2Cl)c(C)c1 | inconclusive [inhibitor, partial curve] | –
COc1cccc(-c2nnc(SCC(=O)N3CCCCC3)o2)c1 | inconclusive [inhibitor, single point] | –
COc1ccccc1C(NC(=O)C1CCN(CCOc2ccc3ccccc3c2)CC1)c1ccccn1 (stereo not given) | active: 14.6 µM | –
Cc1ccc(CSCC(=O)N(C)CC(=O)Nc2c(Cl)cccc2Cl)cc1 | inconclusive [inhibitor, single point] | –
CCOc1ccc(CCNC(=O)Cn2nc(C)n3cccc3c2=O)cc1OCC | – | inactive: -23.7%
CCn1c(=O)[nH]c(=O)c2c(N)c(C(=O)c3cc(F)ccc3F)sc21 | – | inactive: -28.1%
O=C1OCCC1Sc1nnc(-c2ccccc2Cl)n1Cc1ccccc1 (stereo not given) | – | inactive: -13.9%
Nn1c(=O)c2ccccc2n2c(SCc3ccccc3)nnc12 | inconclusive [inhibitor, partial curve, poor fit] | –
CCCCNC(=O)c1cn(CC)c2cc(N3CCN(C)CC3)c(F)cc2c1=O | – | inactive: -28%
Cc1ccc(C(=O)N/C(=C/c2ccco2)C(=O)NCCc2c[nH]c3ccccc23)cc1 | inconclusive [inhibitor, single point] | –
O=C(COc1ccc2c(-c3ccccc3)cc(=O)oc2c1)NCC(O)c1ccccc1 (stereo not given) | – | inactive: -24.3%
CCNC(=O)C1(C)CCN(C(=O)c2cccnc2SC)C1 (stereo not given) | – | inactive: 1.13%
CCOc1ccc(-n2c(=O)c3sccc3n(CC(=O)NCCc3ccc(OC)c(OC)c3)c2=O)cc1 | – | inactive: -4.35%
CCCCNC(=S)NC(=O)c1ccc(Cl)cc1Cl | inconclusive [inhibitor, partial curve] | –
CN1/C(=C\C(=O)COC(=O)Cn2nnc(-c3ccccc3)n2)C(C)(C)c2ccccc21 | active: 3.66 µM | –
O=C(CSc1nnc(CNC(=O)c2cccc(C(F)(F)F)c2)o1)NCC1CCCO1 (stereo not given) | – | inactive: 13.4%
O=C(c1ccco1)N1CCN(c2ccc(F)cc2)CC1 | – | inactive: -26%
CSCCC(NC(=O)c1ccc([N+](=O)[O-])cc1Cl)C(=O)OC(C)C(=O)NCc1ccco1 (stereo not given) | – | inactive: 0.067%
COc1cc(-c2nc3ccc4ccccc4c3c3c2CCC3)cc(OC)c1OC | inconclusive [inhibitor, single point] | –
Cc1cccc(OCC(=O)NCC(=O)N/N=C/c2ccc(N(C)C)cc2)c1 | – | inactive: -14.1%
COc1ccc(-c2c(C)nc3c(-c4ccsc4)cnn3c2N)cc1 | inconclusive [inhibitor, partial curve, poor fit] | –
COc1ccc(S(=O)(=O)NCC(c2cccnc2)N2CCN(c3ccc(F)cc3)CC2)cc1C (stereo not given) | active: 16.4 µM | –
C=C[C@](C)(O)CCC1C(=C)CCC2[C@@](C)(CO)CCC[C@@]12C (stereo not given in full) | active: 18.4 µM | –
